Hit rate of the full screen: of about 52,000 compounds, about 1,700 (3.3%) were called active. No stated cut-off is given here; in the data, active means survival mostly below about 52% (no sharp cut-off); inactive means mostly above about 56%. The list shows a part of the results.
tested on: Wild type; test: S. aureus survival, RN4220 and DeltatarO strains – OD600, teichoic acid synthesis inhibitors, primary screen (AID 463173); conditions: S. aureus RN4220 wild type/DeltatarO growth, OD600, 18 h, hits give low values, screened at 18.75 µg/mL (by protocol)

SMILES	survival
Cc1nn(C)c2c1c(-c1ccccc1)cc(=O)n2CC(=O)NC(C)(C)C	inactive: 126%
COc1cc2nc(SCc3ccc(F)cc3)n3nc(CCn4c(C)nc5ccccc54)nc3c2cc1OC	inactive: 87%
CCOc1ccccc1NC(=O)N1CCN(Cc2cc(=O)n3nc(-c4ccc(C)cc4)sc3n2)CC1	inactive: 73%
CCOc1ccc(S(=O)(=O)N(CC(=O)NCCSCc2ccccc2)c2ccccc2)cc1	inactive: 115%
Clc1ccc(NCCC2=CCCCC2)nn1	inactive: 127%
COc1cc(Cl)c(C)cc1NC(=O)NC1COc2ccccc2C1 (configuration not stated)	inactive: 68%
CCc1ccc(-c2ccc3nnc(SCC(=O)Nc4cccc(C(C)=O)c4)n3n2)cc1	inactive: 71%
CCn1cc(CNC(=O)CCCSc2nc(-c3ccco3)cc(C(F)(F)F)n2)cn1	inactive: 110%
COc1ccc(NC(=O)c2c(C)oc3ccc(O)c(CN4CCCC(C)C4)c23)cc1 (configuration not stated)	inactive: 92%
CN(C1CCCCC1)S(=O)(=O)c1ccc(S(=O)(=O)N(Cc2cccs2)CC2CCCO2)cc1 (configuration not stated)	inactive: 110%
COc1ccc(NC(=O)c2oc3ccccc3c2NC(=O)c2cc(OC)c(OC)c(OC)c2)cc1	inactive: 104%
COc1ccc(CCNC(=O)CN2C(=O)COc3ccccc32)cc1OC	inactive: 131%
COc1cccc(CNC(=O)c2ccc(CS(=O)c3ccccc3)o2)c1 (configuration not stated)	inactive: 109%
COc1ccc(C2=C(N3CCN(c4cc(Cl)ccc4C)CC3)c3ccccc3C2=O)cc1	inactive: 85%
COc1ccc(CCNC(=O)Cn2c(-c3cccs3)cc3cc(F)ccc32)cc1OC	inactive: 86%
CCOC(=O)N1CCN(C(=O)c2cnn(-c3cccc(F)c3)c2-n2cccc2)CC1	inactive: 81%
CCc1ccccc1NC(=O)C(CCSC)NS(=O)(=O)c1ccc2c(c1)oc(=O)n2C (configuration not stated)	inactive: 92%
Cc1ccccc1-c1nn2c(=O)cc(CN3CCN(C(=O)c4ccccc4Br)CC3)nc2s1	inactive: 136%
N#Cc1c(-c2ccccc2)cc(-c2ccccc2)nc1SCC(=O)Nc1ccc(Cl)cc1	inactive: 137%

SMILES	survival
CC(C(=O)Nc1cccc(N)c1)n1nnc2ccccc21 (configuration not stated)	inactive: 107%
Cc1cccc(Oc2nc3c(c(=O)n(C)c(=O)n3C)n2C)c1C	inactive: 90%
CC1CCN(S(=O)(=O)c2ccc3nc(N4CCN(c5ccccc5)CC4)ccc3c2)CC1	inactive: 77%
Oc1c(C(c2ccc(Cl)cc2)N2CCOCC2)sc2nc(-c3ccco3)nn12 (configuration not stated)	inactive: 118%
Fc1cccc(CSc2nc(NCCc3ccccc3)c3ccccc3n2)c1	active: -3%
COc1ccccc1OCC(=O)Nc1cc(-c2ccc(C)cc2)no1	inactive: 85%
COc1cccc([C@H]2Nc3ccc(S(=O)(=O)Nc4cc(C)ccc4C)cc3[C@H]3C=CC[C@H]32)c1	inactive: 72%
Cc1cccc(N(CC(=O)N2CCCC2)S(C)(=O)=O)c1	inactive: 105%
CC(=O)c1cc(-c2ccc(F)cc2)n(CC(=O)NCc2ccc(C)cc2)c1C	inactive: 73%
CC1(C)C2CCC(C2)C1(C)NC(=O)CNCc1ccco1 (configuration not stated)	inactive: 103%
Cc1cc(C)c(OCC(=O)Nc2cccc(-c3nc4ncccc4o3)c2)c(Br)c1	active: 4%
COc1cc(NS(=O)(=O)c2cccs2)cc(OC)c1	inactive: 72%
COc1cccc(-c2nc(CS(=O)(=O)CC(=O)NCCCc3ccccc3)c(C)o2)c1	inactive: 105%
Cc1cc(C)c2cc(C3C(C#N)=C(N)OC4=C3C(=O)CC(C)(C)C4)c(=O)[nH]c2c1 (configuration not stated)	inactive: 114%
Cc1ccc(S(=O)(=O)N2CCCc3cc(NC(=O)c4ccc(C(C)(C)C)cc4)ccc32)cc1	inactive: 121%
CC(C)c1cc(=O)n2[nH]cnc2n1	inactive: 104%
CC(C)N1CCNCC1	inactive: 112%
Cc1ccc(CSc2ncccc2C(=O)O)cc1	inactive: 68%
Cc1nc(-c2ccc(F)cc2)sc1CCNC(=O)C(=O)Nc1ccc2c(c1)OCO2	inactive: 74%

SMILES	survival
CCCn1c2ccccc2c2cnn(CC(=O)NCCc3cc(OC)ccc3OC)c(=O)c21	inactive: 69%
CCOC(=O)c1cccc(NC(=O)NCc2ccc3c(c2)CCN3C(=O)CC)c1	inactive: 76%
CCN(CC)c1ccc(NC(=O)c2sc3nc(-c4ccccc4)cn3c2C)cc1	inactive: 113%
COc1ccc(N2CCN(C(=O)c3nn(C)c4c3CSc3ccccc3-4)CC2)cc1	inactive: 84%
CCC(=O)Nc1ccccc1-c1nc2ccccc2n(CC(=O)c2ccc(Br)cc2)c1=O	inactive: 61%
Cc1ccc(Cl)cc1NC(=O)Cn1cc(S(=O)(=O)Cc2ccccc2Cl)c2ccccc21	inactive: 80%
CCc1ccc(C(=O)c2cn(CC(=O)Nc3ccc(OC)c(Cl)c3)c3nc(C)ccc3c2=O)cc1	inactive: 119%
CCCN(C(=O)NCc1noc2ccc(C)cc12)c1ccc(Cl)c(Cl)c1	inactive: 64%
CC1=C(C(=O)Nc2cccc(C(F)(F)F)c2)C(c2ccccn2)n2ncnc2N1 (configuration not stated)	inactive: 81%
O=C(Cn1c(SCCOc2ccccc2Cl)nc2ccccc21)N1CCCCC1	inactive: 61%
Cc1cc(C)cc(OCC(=O)NCC2(N3CCOCC3)CCCCC2)c1	inactive: 95%
CCCc1cc(=O)[nH]c(SCc2nc(-c3ccc(OC)cc3)no2)n1	inactive: 101%
COCCNC(=O)c1c[nH]c2ccccc2c1=O	inactive: 104%
Cc1ccc(C)c(NC(=O)Cn2c(=O)n(Cc3ccco3)c(=O)c3ccc(C(=O)NC4CCCC4)cc32)c1	inactive: 84%
COc1ccc(CC(=O)NCCc2csc(-c3cccc(F)c3)n2)cc1OC	inactive: 71%
N#Cc1ccccc1Cn1c(=O)n(-c2ccc(F)c(Cl)c2)c(=O)c2sccc21	inactive: 118%
CCOC(=O)c1ccccc1NC(=O)c1sc2ncn(CC)c(=O)c2c1C	inactive: 82%
Cc1ccc(S(=O)(=O)Nc2cc3c(C(=O)OCc4ccccc4)c(C)oc3c3ccccc23)cc1	inactive: 81%
O=C(C1CCN(c2ncnc3c2nc2n3CCCCC2)CC1)N1CCN(c2ccccc2)CC1	inactive: 71%

Source: PubChem BioAssay AID463173 (ICCB-Longwood Screening Facility, Harvard Medical School, 2010)
